Consider 45 sequences from the supplement of paper PMC11417369.

The other results are listed elsewhere or left out.

The experiment deals with PF3D7_0420300 AP2 domain 1 (GST-tagged). Nature of the experiment: gcPBM binding intensity (ln(normalized median fluorescence intensity)); higher = stronger DNA binding. The procedure, abridged:
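GST-tagged P. falciparum DNA-binding domains, expressed in E. coli (about 25 μg on average), were applied for 1 h to an Agilent 4 × 180k array of primer-extended double-stranded 36-bp intergenic genomic probes plus negative controls. The binding buffer was 1× PBS with 1% milk, 0.2 mg/ml BSA, 0.5% salmon testes DNA and 0.03% Triton X-100. Bound protein was detected with Alexa488 anti-GST antibody and scanned at 488 nm. Binding intensity is the highest Masliner-normalised natural-log median intensity across replicate spots of either probe orientation.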
For “TTTTGTTATAAATAATGTACATATTTATTTAAAATT [XGTACX_site6610]”, the “gcPBM binding intensity (ln)” value turned out to be 8.93.

Regarding “AAAAACAGAAATGTAACACACAAAAATTCTATTTAT [CACACA_site4026]”, the “gcPBM binding intensity (ln)” value turned out to be 9.62.

As for “TATAAAAATGTGCACACACACACATATTTATATTTA [CACACA_site6826]”, the “gcPBM binding intensity (ln)” value is 9.84.

Consider “AACCTTTATATGTAAAGTACAAAAAAGAGTAAAAAA [XGTACX_site5506]”, for which the “gcPBM binding intensity (ln)” value turned out to be 9.2.

As to “AAAATCATTCCAAAGACATGCATTTTGCAAATAAAA [TGCATGCA_site461]”, the “gcPBM binding intensity (ln)” value is 8.95.

Consider “TATATTATATACCATTGTACATATAATATAGGTTCT [XGTACX_site7047]”, for which the “gcPBM binding intensity (ln)” value was found to be 9.27.

“ACAAGTTTTTTTTTATCACACACAAAAAAAAAAATA [CACACA_site8377]”: the “gcPBM binding intensity (ln)” value worked out at 9.35.

Consider “TATTTACCCTCATGTTGTACTTTTCATTCATTTTAT [XGTACX_site7794]”, for which the “gcPBM binding intensity (ln)” value came out at 9.69.

In the case of “AACATACATAGACACACACACACACGCACACGCACA [CACACA_site6373]”, the “gcPBM binding intensity (ln)” value was found to be 10.3.

For the sequence “GAAAATACGTTTAATCGTACATATATATAATATATA [XGTACX_site4243]”, the “gcPBM binding intensity (ln)” value came out at 9.09.

For “ATTAATTATAATGTATGTACATAACTTTTTTATATT [XGTACX_site5784]”, the “gcPBM binding intensity (ln)” value worked out at 9.31.

For “TTTATTATTTTTAGGAGTACACAAAATAAAACAAAT [XGTACX_site8841]”, the “gcPBM binding intensity (ln)” value was determined as 9.09.

Take “AGAAAAGTTTAATACAGTACATAAACAAAGTATAGG [XGTACX_site2386]”: the “gcPBM binding intensity (ln)” value is 9.48.

On to “GTATATTTATAGCCTTTATTATATTTAATATTATTA [TGCATGCA_negctrl_site26]”, for which the “gcPBM binding intensity (ln)” value was determined as 9.44.

Take “TATAATATTATATATAAACACACATACACATGTAAA [CACACA_site8631]”: the “gcPBM binding intensity (ln)” value was found to be 9.63.

In the case of “GTTATATTTTTTTATACACACTGGAATATATAAATA [CACACA_site4282]”, the “gcPBM binding intensity (ln)” value came to 9.35.

As to “ATAATTATATATTTATGTACGCATAAATATTTATAT [XGTACX_site5765]”, the “gcPBM binding intensity (ln)” value is 9.14.

As for “TATTTATTGTGATACTACTATTATTTTATGATTAAA [CACACA_negctrl_site284]”, the “gcPBM binding intensity (ln)” value is 9.25.

Take “ACCCAATTTTAAAATGAACACACATGTTTTTCTTAC [CACACA_site8246]”: the “gcPBM binding intensity (ln)” value worked out at 9.52.

Consider “TATACAACTTTATGAAGTACAAAAAGTTCTATATAT [XGTACX_site3866]”, for which the “gcPBM binding intensity (ln)” value was found to be 8.99.

Take TTGTTTTATTATTCGATGCACTACAGAAATATATTC: the “gcPBM binding intensity (ln)” value was found to be 9.16.

On to “TATATATAACTTTATTGTACAAAATATTATGTATTC [XGTACX_site981]”, for which the “gcPBM binding intensity (ln)” value is 9.19.

For “TTATATTATTTTTAATGTACTTTTTATGAATACAAA [XGTACX_site689]”, the “gcPBM binding intensity (ln)” value came to 9.01.

As to “AACTATATCATTTATTTTATTTTTTAAATACATTTA [CACACA_negctrl_site183]”, the “gcPBM binding intensity (ln)” value was found to be 9.12.

Regarding “AATATATGTATGTACGCATGTATGTATCTATGTATT [TGCATGCA_site389]”, the “gcPBM binding intensity (ln)” value came to 9.36.

In the case of “TTATAATTATATACATGTACATATAATACATATATA [XGTACX_site8904]”, the “gcPBM binding intensity (ln)” value stood at 9.08.

Consider “ATATGGGTAATGAATTGTACTCTTTCTTGTTGTTCT [XGTACX_site4487]”, for which the “gcPBM binding intensity (ln)” value was 9.65.

Turning to “TGTAATAAATAGTACACACACACATATTTATATATC [CACACA_site6770]”, the “gcPBM binding intensity (ln)” value amounted to 10.1.

For “GTATAATTTTCGTATTCACACAAGAATATACTACAT [CACACA_site4877]”, the “gcPBM binding intensity (ln)” value was 9.37.

Turning to “TATACATATTTTATAGCACACAAATAATAATATGTA [CACACA_site8129]”, the “gcPBM binding intensity (ln)” value came out at 9.23.

On to “CCAACTATATTATGAAGTACATATATATTATATATA [XGTACX_site5767]”, for which the “gcPBM binding intensity (ln)” value was 9.13.

Take “AAACCTACATAACATACACACGCATATATATAATTT [CACACA_site8923]”: the “gcPBM binding intensity (ln)” value came out at 9.69.

“TTTTTTTTTTTTTATTGTACATGCAAAAAATTCCAC [XGTACX_site2371]”: the “gcPBM binding intensity (ln)” value was found to be 8.85.

Regarding “GTAAGTATATATAAATGTACTTATGAGGTCAAATTA [XGTACX_site3392]”, the “gcPBM binding intensity (ln)” value worked out at 9.24.

Regarding “TTGGGTATTTTGTGCGCACACACATGCAAAAAGAAA [CACACA_site8299]”, the “gcPBM binding intensity (ln)” value worked out at 9.44.

On to “TCTGTATTTCCTTATGCATGCATTAGCAAGATAATA [TGCATGCA_site483]”, for which the “gcPBM binding intensity (ln)” value was found to be 9.23.

In the case of “ATATATATATATTGTAGTACTTATTAAATTATTTAT [XGTACX_site6235]”, the “gcPBM binding intensity (ln)” value is 9.38.

In the case of “TAAGTATACTCATACACACACACACTAGAAAAAAAA [CACACA_site4397]”, the “gcPBM binding intensity (ln)” value was 10.

Consider “AGAGATACATAAAAAAGTACATATAAAATTTAGGAA [XGTACX_site7201]”, for which the “gcPBM binding intensity (ln)” value came out at 9.38.

As for “TATTTATTTATATACACACACTTGTATAAAAAATGT [CACACA_site7048]”, the “gcPBM binding intensity (ln)” value worked out at 9.5.

“TGCGACCATAATAAAGCACACAATGAAAAATATATA [CACACA_site256]”: the “gcPBM binding intensity (ln)” value came out at 9.49.

For “TACAAATTAATATGTACACACAAATATATATATATA [CACACA_site1977]”, the “gcPBM binding intensity (ln)” value amounted to 9.49.

For “ATAATATGAAACTAAGGTACACATATATTAACAGAG [XGTACX_site3842]”, the “gcPBM binding intensity (ln)” value is 9.52.

On to “TGTGCTCAAAATTATGCACACACCTAAAATTAATTT [CACACA_site8950]”, for which the “gcPBM binding intensity (ln)” value amounted to 9.4.

For “ATGAGAAAATATATTATTTTATATGAACAAGTTTAT [XGTACX_negctrl_site372]”, the “gcPBM binding intensity (ln)” value is 9.02.
